# Source: PubChem BioAssay AID686970 (National Center for Advancing Translational Sciences (NCATS), 2013)
# The campaign covered roughly 360,000 compounds. About 6,000 (1.7%) were called active. The shares of active, inactive and inconclusive entries below differ from those in the screen. Calls follow the shape of the dose curve; as a rule, active = well fitted cell-killing curve with a large enough effect; inconclusive = small, poorly fitted or top-dose-only effect, or effect the other way; inactive = flat fitted curve, though single readings scatter. No potency is given beside an inconclusive call; the fits are too rough.
# Assay: qHTS for induction of synthetic lethality in tumor cells producing 2HG: qHTS for the HT-1080-NT fibrosarcoma cell line;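 also: NT is the 2HG producing partner of a matched IDH1 knockdown line; nearly all actives have a fitted effect of over 55% in size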;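 as to activity, negative = less viability: 0% = DMSO-treated cells and -100% = media-only wells without cells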
# Conditions: HT-1080-NT fibrosarcoma viability, CellTiter-Glo ATP luminescence, 48 h; activity, negative = less viability: at 46.1 µM (top of the series) unless noted
# Summary of the method: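 Viability by CellTiter-Glo luminescence after 48 h compound exposure at 37C of HT-1080-NT cells (750/well, RPMI, 5% FBS). % activity scaled between DMSO wells and medium-only wells, then curve-fitted and categorized by curve class.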
# Potency is read from the fitted curve at half-maximal effect; tags tell the direction and shape of the fitted curve.
Structure (SMILES),Potency,"activity, negative = less viability"
COc1ccc(-c2cc([N+](=O)[O-])ccc2OCC(=O)N(C)CC(=O)Nc2ccc(C)cc2)cc1,"inconclusive [cytotoxic, partial curve]",
CN1CCN(C(c2ccccc2)c2ccccc2)CC1,,inconclusive: -4.9% [cytotoxic]
COC(=O)C1=C(C(=O)OC)SC2(S1)C(C(=O)OC)=C(C(=O)OC)SC1=C2c2cccc(C)c2NC1(C)C,active: 3.98 µM,
Clc1nc(-c2ccccn2)nc2scc(-c3ccccc3)c12,"inconclusive [cytotoxic, single point]",
O=C(Nc1ccc(F)cc1)N[C@@H]1CC[C@@H](CCn2cc(-c3ccc(F)cc3)nn2)O[C@@H]1CO,inactive,
Cn1c(SCC(=O)Nc2ccccc2C(F)(F)F)nc2c(c1=O)SCC2,"inconclusive [cytotoxic, partial curve]",
c1cncc(-c2nc(NCCCN3CCOCC3)c3c4c(sc3n2)CCC4)c1,active: 18.4 µM,
Cc1ccccc1NC1=C(Cl)C(=O)OC1OC(=O)c1ccco1 (stereo unspecified),"inconclusive [cytotoxic, single point]",
Clc1ccc(-c2nc3ccccc3n2OCc2ccccc2)cc1,inactive,
Cc1nc(N)[nH]c(=O)c1CCCNc1ccc(CCCCC2(CCl)OCCO2)cc1,"inconclusive [cytotoxic, partial curve]",
COC(=O)[C@@]1(Cc2ccc(F)cc2)[C@H]2c3cc(C(=O)N4CCCC4)n(Cc4ccc(C)c(F)c4F)c3C[C@H]2CN1C(=O)c1ccccc1,"inconclusive [cytotoxic, single point]",
O=C(Cn1c(C(=O)N2CCc3ccccc3C2)cc2sccc21)c1ccccc1,"inconclusive [cytotoxic, single point]",
C=CCOC(=O)C1=C[C@H](c2cn(C(C)=O)c3ccccc23)C[C@H](OCc2ccc(CO)cc2)O1,inactive,
O=C(NCc1ccco1)/C(=C/c1ccc(Br)cc1)NC(=O)c1ccco1,"inconclusive [cytotoxic, single point]",
O=C(CNc1ccc(Br)cc1)c1ccccc1,"inconclusive [cytotoxic, partial curve]",
COC(=O)c1sccc1-c1ccc(C(=O)Nc2ccccc2)o1,,inconclusive: 13.4%
COc1ccc(CCNC(=O)C(=O)NCC2OCCN2S(=O)(=O)c2ccc(C)cc2)cc1OC (stereo unspecified),"inconclusive [cytotoxic, single point]",
Cc1nc(N2CCC(C)CC2)c2c(C)c(C(=O)Nc3ccc(C(F)(F)F)cc3)sc2n1,"inconclusive [cytotoxic, single point]",
Cc1ccc(C(C)NC(=O)c2ccc3c(c2)OCCO3)cc1C (stereo unspecified),"inconclusive [cytotoxic, partial curve]",
O=C(N/N=C/c1ccccc1)C(=O)N/N=C/c1ccccc1,inactive,
Cn1cccc1C(=O)Nc1nc(-c2ccccn2)cs1,"inconclusive [cytotoxic, single point]",
COc1ccc(N2C(=O)C3C(C2=O)C(C(=O)c2ccccc2)N2CCCC32)cc1 (stereo unspecified),"inconclusive [cytotoxic, partial curve]",
COc1cccc(Nc2nc(-c3sc(NC(=O)CC(C)C)nc3C)cs2)c1,inactive,
CCOc1ccc(N(Cc2ccc(OC)cc2)C(=O)c2ccco2)cc1,,inconclusive: -32.2% [cytotoxic]

Structure (SMILES),Potency,"activity, negative = less viability"
O=C(NC(=S)NCCN1CCOCC1)c1cccc(Cl)c1,active: 25.1 µM,
COc1cccc(C(=O)N/N=C(/c2ccccc2)c2ccccn2)c1,"inconclusive [cytotoxic, full curve]",
CCc1nc2ccc(C(=O)NCCN3CCOCC3)cn2c1N(C)Cc1ccc(OC)cc1,"inconclusive [cytotoxic, single point]",
O=C(Nc1ccc([N+](=O)[O-])cc1)C(Cc1ccccc1)N1C(=O)c2cccc3cccc(c23)C1=O (stereo unspecified),"inconclusive [cytotoxic, partial curve, poor fit]",
CC1CCN(C2CC(=O)N(c3ccccc3)C2=O)CC1 (stereo unspecified),inactive,
COc1ccc(N(CC(=O)NC2CCCCC2)C(=O)CNC(=O)c2cccs2)cc1OC,inactive,
CCOC(=O)[C@]12CCCC=C1N(Cc1cccc3ccccc13)C(=O)[C@H](CC(=O)NCc1cccs1)C2,"inconclusive [cytotoxic, single point]",
Cc1ccc(CNc2nc(NCC3CC3)nc3ccsc23)c(C)c1,active: 14.6 µM,
CN(CC(=O)Nc1ccc(F)cc1)C(=O)CN1C(=O)c2cccc([N+](=O)[O-])c2C1=O,inactive,
CCn1c2ccccc2c2cc(NC(=O)c3cccc(OC)c3)ccc21,active: 12.6 µM,
Cc1cc2nc(CCN(C(=S)NCC(C)C)C3CCCC3)[nH]c2cc1C,"inconclusive [cytotoxic, single point]",
CCCn1nnc(NC(=O)c2ccc(OCC)c(Cl)c2)n1,"inconclusive [rising, single point]",
Cc1ccc(CNS(=O)(=O)NCc2ccc(Cl)cc2)cc1,inactive,
COC(=O)c1ccccc1NCC(=O)c1ccc(OC)cc1,"inconclusive [cytotoxic, single point]",
CC1CCCCN1S(=O)(=O)c1ccc(S(=O)(=O)NCCc2ccncc2)cc1 (stereo unspecified),"inconclusive [cytotoxic, single point]",
O=C(CCl)NCCCCCCCCCNC(=O)CCl,active: 16.4 µM,
COc1cc(CN2CCCC(CO)(Cc3cccc(Cl)c3)C2)cc2c1OCO2 (stereo unspecified),"inconclusive [cytotoxic, partial curve]",
Nc1nc(Cl)nc2c1ncn2[C@@H]1O[C@H](CO)[C@@H](O)[C@H]1O,active: 18.4 µM,
O=C(O)C1C2C=CC(O2)C1C(=O)Nc1cccc(C(F)(F)F)c1 (stereo unspecified),inactive,
CCCc1cc(=O)[nH]c(SCC(=O)c2ccc3c(c2)OCCO3)n1,inactive,
COc1ccc(CN(C)C[C@@H]2OCCCC[C@@H](C)Oc3ccc(N(C)C)cc3C(=O)N([C@H](C)CO)C[C@@H]2C)cc1,inactive,
Cc1cc(Cl)ccc1OC(C)C(=O)OCC(=O)c1ccc[nH]1 (stereo unspecified),inactive,
CCCCC(=O)Nc1ccc(NC(=O)CCCC)nc1,inactive,
O=C(Nc1ccc(N2CCOCC2)c(Cl)c1)c1ccc(S(=O)(=O)N2CCOCC2)cc1,"inconclusive [cytotoxic, partial curve]",

Structure (SMILES),Potency,"activity, negative = less viability"
CC(=O)c1cccc(-c2ccnc3c2CC(C(=O)NCc2ccccc2)O3)c1 (stereo unspecified),"inconclusive [cytotoxic, full curve]",
O=C(O)Cc1cn(Cc2cccc(Cl)c2)c2ccccc12,inactive,
Cn1c(N)c(-c2ccccc2)c2ccc([N+](=O)[O-])cc2c1=O,"inconclusive [cytotoxic, partial curve, poor fit]",
CN(C)S(=O)(=O)N1CCc2ccc(NC(=O)c3ccc(C(F)(F)F)cc3)cc2C1,active: 16.4 µM,
COc1ccc(CCNC(=S)N2CCC(Cc3ccccc3)CC2)cc1OC,inactive,
Brc1ccc(-c2nc3ccc(Br)cn3c2Cc2ccccc2)cc1,"inconclusive [cytotoxic, single point]",
CCS(=O)(=O)N1CCN(S(=O)(=O)c2ccc3ccccc3c2)CC1,inactive,
COCCN1C=C(C(=O)OC)C(c2ccccc2Cl)C(C(=O)OC)=C1,inactive,
Cc1cnc(C2OCCO2)c2cccc([N+](=O)[O-])c12,inactive,
COc1ccc(NC(=O)N(C)C[C@H]2Oc3ccc(NS(=O)(=O)c4c(C)noc4C)cc3C(=O)N([C@H](C)CO)C[C@@H]2C)cc1,inactive,
CC(C)c1ccc(-n2c(-c3ccccc3)c[n+]3c2CCc2ccccc2-3)cc1,active: 8.2 µM,
N#CCc1ccc(NS(=O)(=O)c2ccc(C3CCCCC3)cc2)cc1,"inconclusive [cytotoxic, single point]",
O=C(COC(=O)c1ccccc1C(=O)N1CCN(c2ccccc2)CC1)NCc1ccccc1,inactive,
COc1ccccc1-c1nnc2sc(-c3cc4ccccc4o3)nn12,"inconclusive [cytotoxic, full curve]",
CCOC(=O)c1c(C)n(C)c2c1cc(OC(C)=O)c1ccccc12,"inconclusive [rising, single point]",
Cc1onc(-c2c(F)cccc2Cl)c1C(=O)Nc1nnc(C(F)(F)F)s1,"inconclusive [cytotoxic, single point]",
COc1cc2ccccc2cc1C(=O)N(CCN(C)C)c1nc2c(F)cc(F)cc2s1,"inconclusive [cytotoxic, partial curve]",
O=C(NCc1ccco1)C1CCN(C(=O)c2cc3sccc3n2Cc2ccc(F)cc2)CC1,"inconclusive [cytotoxic, single point]",
CCCCCCCCn1c(=O)c(C(=O)OCC)c(O)c2ccccc21,inactive,
CC(C)C[C@H](NC(=O)c1nc[nH]c1C(=O)NC1CCN(C(=O)OC(C)(C)C)CC1)C(=O)OC(C)(C)C,"inconclusive [cytotoxic, single point]",
COc1cc(C(C)=O)ccc1COc1ccc(C(=O)OCC(=O)NC2CCS(=O)(=O)C2)cc1OC (stereo unspecified),"inconclusive [rising, single point]",
CSc1ccc(CN2CCC(C)(Oc3ccc4ccccc4c3)C2)cc1 (stereo unspecified),inactive,
OCCNc1c2ccccc2nc2c(F)c(F)c(F)c(F)c12,"inconclusive [cytotoxic, full curve]",
